# Reference: PubChem BioAssay AID624417 (National Center for Advancing Translational Sciences (NCATS), 2012)
# Where “and” joins values, the source holds several entries; their conditions need not be identical. Equal entries are not always repeated. Out of some 410,000 compounds screened, about 6,400 (1.6%) were called active. Inconclusive results, whose numbers are uncertain, are shown with a selection of clear calls. The call rests on the fitted dose curve; in most records, active means well fitted inhibition curve with a large enough effect; inconclusive means small, poorly fitted or top-dose-only effect; inactive means no such curve, though single readings can be large or run the other way. Potencies beside an inconclusive call are fits to weak or partial responses and may not hold up.
# Target: Glucagon-like peptide 1 receptor (Homo sapiens) (UniProt P43220)
# UniProt P43220, sequence (P43220 whole entry, looked up): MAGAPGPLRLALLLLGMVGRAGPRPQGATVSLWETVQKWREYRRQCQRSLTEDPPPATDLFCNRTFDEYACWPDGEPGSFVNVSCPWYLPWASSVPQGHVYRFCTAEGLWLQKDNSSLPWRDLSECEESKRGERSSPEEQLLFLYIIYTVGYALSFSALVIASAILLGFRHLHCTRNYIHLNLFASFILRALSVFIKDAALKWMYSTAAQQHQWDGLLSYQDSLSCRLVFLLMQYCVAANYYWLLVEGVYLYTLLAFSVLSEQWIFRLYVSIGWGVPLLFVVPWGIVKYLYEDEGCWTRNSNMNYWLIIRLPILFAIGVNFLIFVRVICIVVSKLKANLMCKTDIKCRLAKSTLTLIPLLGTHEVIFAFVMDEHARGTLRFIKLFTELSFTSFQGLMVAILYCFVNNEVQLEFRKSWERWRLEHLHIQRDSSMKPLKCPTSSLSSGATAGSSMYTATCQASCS
# Test: qHTS of GLP-1 Receptor Inverse Agonists (Inhibition Mode); further: nearly all actives have a fitted effect of over 55% in size
# Conditions: HEK293 GLP-1R CRE-luciferase, luminescence, 24 h, GLP-1R form is constitutively active; series mostly up to 38.3 µM
# Outline: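 Stable HEK293 clone (constitutively active GLP-1R + cAMP-response luciferase); 200 cells/uL plated, 12 h pre-culture, compound 24 hr, 37 deg C/5% CO2; detection reagent 12 min RT; luminescence.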
# Potency means the concentration at half of the fitted maximal effect; tags describe the fitted curve by direction and shape.
row,SMILES,Potency
1,CC1CCCN(C(=O)CSc2cnc3ccccc3n2)C1 (configuration not stated),"inconclusive: 25.1 µM [inhibitor, single point]"
2,CCOC(=O)c1ccccc1NC(=O)/C(C)=C/C(=O)O,inactive
3,O=C(N/C(=C/c1ccccc1)C(=O)N1CCCCCC1)c1ccccc1,"inconclusive: 12.6 µM [inhibitor, single point]"
4,C=CCc1c(C)nc(-c2ccccc2)nc1N/N=C/c1ccccc1,"inconclusive: 11.2 µM [inhibitor, partial curve, poor fit]"
5,COc1cc(C)cc2oc(=O)c(CC(=O)NCCc3ccc(Cl)cc3)c(C)c12,inactive
6,Cc1cc(C(=O)N/N=C\c2cc(C(C)(C)C)c(O)c(C(C)(C)C)c2)n[nH]1,"inconclusive: 11.2 µM [inhibitor, partial curve, poor fit]"
7,COCCCNC(=O)c1c(N)n(-c2ccccc2)c2nc3ccccc3nc12,"inconclusive: 10 µM [inhibitor, single point]"
8,COc1ccc2cc(C(=O)NCc3ccc4c(c3)CCN4C(=O)c3ccc(F)cc3)[nH]c2c1,inactive
9,Nc1ccc(-c2nc3ccc(N)cc3[nH]2)cc1,inactive
10,CCc1ccc2[nH]c(=O)c(CN(CCN3CCCC3)C(=O)NC3CCCCC3)cc2c1,"inconclusive: 10 µM [inhibitor, partial curve, poor fit]"
11,COc1cccc(-c2ccc(SCC(=O)NC3CCCC3)nn2)c1,inactive
12,CCOc1ccc(S(=O)(=O)N2CCN(CC(O)COc3cccc([N+](=O)[O-])c3)CC2)cc1 (configuration not stated),"inconclusive: 28.2 µM [inhibitor, single point]"
13,COc1cc(C(=O)N/N=C/c2ccsc2C)cc(OC)c1OC,"inconclusive: 0.316 µM [inhibitor, full curve, poor fit]"
14,CCOC(=O)c1cnn(-c2ccc(C(=O)Nc3cccc(C(C)=O)c3)cc2)c1N,inactive
15,O=C(NCc1ccccc1)C(c1ccco1)N(C(=O)c1csnn1)c1ccccc1F (configuration not stated),"inconclusive: 5.62 µM [inhibitor, full curve, poor fit]"
16,CCCCCc1c(CC)ncn1CCc1ccccc1OC,"inconclusive: 28.2 µM [inhibitor, single point]"
17,O=C(NNc1cc(C(F)(F)F)nc2ccccc12)Nc1cccc(Cl)c1,"inconclusive: 2.82 µM [inhibitor, partial curve, poor fit]"
18,COc1ccc(CCN2C(=S)N(C)C(=O)C2CC(=O)Nc2ccc(OC)cc2)cc1 (configuration not stated),"inconclusive: 6.31 µM [inhibitor, partial curve, poor fit]"
19,CCCCn1cnc2c(SCc3ccc(Cl)cc3)nc(N)nc21,"inconclusive: 28.2 µM [inhibitor, partial curve, poor fit]"
20,CCN(C(=O)Nc1cn(CC(C)C)c(=O)c2ccccc12)c1cc(C)ccc1C,"inconclusive: 11.2 µM [inhibitor, single point]"
21,OC(Cc1cccc(Br)c1)c1ncc(-c2cccc(C(F)(F)F)c2)[nH]1 (configuration not stated),"inconclusive: 28.2 µM [inhibitor, single point]"
22,Cc1ccc(S(=O)(=O)N2CCN(C(=O)CN3CCN(c4ccc(O)cc4)CC3)CC2)cc1,"inconclusive: 2.24 µM [inhibitor, full curve]"
23,Cc1ccc2nc(Nc3ccc(C)c(F)c3)c3nncn3c2c1,inactive

row,SMILES,Potency
1,O=C(CSc1ccccc1)N1CCCC(Nc2ccccc2)C1 (configuration not stated),"inconclusive: 14.1 µM [inhibitor, partial curve, poor fit]"
2,Cc1ccc(OCCOCCNC(C)C)c(Br)c1,"inconclusive: 10 µM [inhibitor, partial curve, poor fit]"
3,CCCN(CCC)C(=S)NC(=O)c1ccc(-c2ccccc2)cc1,"inconclusive: 6.31 µM [inhibitor, partial curve, poor fit]"
4,COc1ccccc1CN1C(=O)CN(C2CCCCCC2)C(=O)C1c1ccc(F)cc1 (configuration not stated),"inconclusive: 6.31 µM [inhibitor, partial curve, poor fit] and inconclusive: 28.2 µM [inhibitor, single point]"
5,CCOC(=O)c1ccc(CNC(=O)CCC(=O)O)cc1,inactive
6,O=C(CN1CCN(CC(=O)Nc2ccccc2Cl)CC1)Nc1ccc(F)c(F)c1,inactive
7,CN(C)C(C)(C)C#CCC(c1ccccc1)c1ccccc1,"inconclusive: 7.94 µM [inhibitor, partial curve, poor fit]"
8,COc1ccccc1C(CNC(=O)COc1cc(C)ccc1Cl)N1CCCC1 (configuration not stated),"inconclusive: 15.8 µM [inhibitor, partial curve, poor fit]"
9,COc1cccc(C(=O)NC2=NCCS2)c1,"inconclusive: 10 µM [inhibitor, single point]"
10,c1ccc(CC2CCN(C(c3cccs3)c3nnnn3C3CCCC3)CC2)cc1 (configuration not stated),"inconclusive: 6.31 µM [inhibitor, partial curve, poor fit]"
11,O=C(c1cnn2c(C(F)(F)F)cc(-c3cccs3)nc12)N1CCN(C(c2ccccc2)c2ccccc2)CC1,"inconclusive: 2.51 µM [inhibitor, partial curve, poor fit]"
12,CCOCCCNC(=O)CN1C(=O)COc2ccc(S(=O)(=O)N3CCCC3)cc21,inactive
13,COc1ccccc1Nc1cc(C(=O)NC2CCC(C)CC2)c2ccccc2n1 (configuration not stated),inactive
14,COc1ccccc1Nc1nc(NCCCN(C)C)nc(N)c1[N+](=O)[O-],"inconclusive: 11.2 µM [inhibitor, single point]"
15,CCc1ccc(/C(C)=N/NC(=O)CNC(=O)/C=C/c2ccccc2OC)cc1,"inconclusive: 15.8 µM [inhibitor, single point]"
16,COc1ccc(CCNCC(O)Cn2c3ccccc3c3ccccc32)cc1OC (configuration not stated),"inconclusive: 10 µM [inhibitor, partial curve, poor fit]"
17,CC(O)(c1ccccc1)c1ccc2ccccc2n1 (configuration not stated),"inconclusive: 11.2 µM [inhibitor, single point]"
18,CCOC(=O)CSc1nc(-c2ccccc2)nc2ccccc12,"inconclusive: 20 µM [inhibitor, single point]"
19,N#C/C(=C/c1ccco1)c1nc2ccccc2s1,inactive
20,O=C(NCc1ccccc1)C(c1cccc2ccccc12)n1c(=O)c(-c2cc3ccccc3[nH]2)nc2ccccc21 (configuration not stated),"inconclusive: 4.47 µM [inhibitor, partial curve]"
21,O=c1cc(-c2ccc(O)c(O)c2)oc2cc(O)cc(O)c12,inactive
22,COc1ccc(C(=O)NC(=S)Nc2ccc(CN3CCOCC3)cc2)cc1Cl,"inconclusive: 10 µM [inhibitor, partial curve, poor fit]"
23,CCCCN(CC)C(=O)CSc1c2c(nc3ccc(Cl)cc13)CCCC2,active: 10 µM

row,SMILES,Potency
1,COc1ccc(Cl)cc1NC(=O)CN(C)C(=O)COc1ccccc1F,"inconclusive: 5.62 µM [inhibitor, partial curve]"
2,O=C(Nc1cccc(Cl)c1)c1ccc2c(c1)CCN2S(=O)(=O)c1ccccc1,active: 2.51 µM
3,CCCCCC(=O)NC(=S)Nc1ccc(NC(=O)c2ccco2)cc1,inactive
4,CCCn1nnc(NC(=O)c2ccc(-c3cccc(Cl)c3)o2)n1,inactive
5,CCc1ccccc1Nc1nn2c(=O)c3ccc(C(=O)NCCCOC(C)C)cc3nc2s1,"inconclusive: 3.55 µM [inhibitor, partial curve, poor fit]"
6,Cc1oc(-c2ccc(Cl)cc2)nc1CSc1nc2ncccc2[nH]1,inactive
7,CCCCS(=O)(=O)/C=C\C=C/S(=O)(=O)CCCC,"inconclusive: 3.98 µM [inhibitor, full curve, poor fit]"
8,CN(Cc1ccc(Cl)cc1)C(=O)c1ccc(S(=O)(=O)NCc2ccco2)cc1,"inconclusive: 28.2 µM [inhibitor, single point]"
9,COc1ccc(CC(=O)OC(C)C(=O)NC2CCCCC2C)cc1 (configuration not stated),"inconclusive: 5.62 µM [inhibitor, partial curve, poor fit]"
10,CC(NCC(=O)Nc1ccccc1C(=O)NC1CC1)c1ccccc1Cl (configuration not stated),"inconclusive: 11.2 µM [inhibitor, single point]"
11,CCO/N=C(/C)c1c(O)c(C)c(-c2ccccc2)n(-c2ccccc2)c1=O,"inconclusive: 7.94 µM [inhibitor, single point]"
12,COc1cccc(NC(=O)c2ccc(-c3nc(COc4ccccc4)c(C)o3)cc2)c1,inactive
13,CC(=O)c1ccc(OCCOc2ccc(C#N)cc2)cc1,"inconclusive: 22.4 µM [inhibitor, single point]"
14,CN(CC(=O)Nc1ccccc1C(F)(F)F)C(=O)CSCc1ccc(Cl)c(Cl)c1,"inconclusive: 10 µM [inhibitor, partial curve, poor fit]"
15,Cc1cccc(Cn2nc(-n3cccc3)c3c(C)cc(C)nc32)c1,"inconclusive: 10 µM [inhibitor, partial curve, poor fit]"
16,Cc1nc2ccccn2c1C(=O)CSc1ccccc1Cl,"inconclusive: 10 µM [inhibitor, partial curve, poor fit]"
17,Cc1ccc(CN(Cc2ccco2)C(=S)NCC(=O)O)cc1,inactive
18,COc1ccc(Cn2cc(S(=O)(=O)c3ccc(Cl)cc3)c(=O)c3cc4c(cc32)OCO4)cc1,inactive
19,Cc1cccc(N2CCN(C(=O)N3CCCCC3)CC2)c1C,"inconclusive: 12.6 µM [inhibitor, single point]"
20,COc1cc(C)ccc1OCc1cc(C(=O)N2CCCCCCC2)no1,"inconclusive: 6.31 µM [inhibitor, partial curve, poor fit]"
21,NS(=O)(=O)c1ccc(CNC(=O)CC23CC4CC(CC(C4)C2)C3)cc1,"inconclusive: 11.2 µM [inhibitor, single point]"
